# Assay results taken from PubChem BioAssay AID720542 (National Center for Advancing Translational Sciences (NCATS), 2013).
# Hit rate of the full screen: of about 360,000 compounds, about 740 (0.21%) were called active. The inconclusive results got no clear call from the source; some entries with a clear call stand among them for comparison. The call rests on the fitted dose curve; in most records, active means well fitted inhibition curve with a large enough effect; inconclusive means small, poorly fitted or top-dose-only effect; inactive means no such curve, though single readings can be large or run the other way. No potency is given beside an inconclusive call; the fits are too rough.
# Tested on: Plasmodium falciparum AMA1 (3D7) - RON2 peptide interaction
# Assay: qHTS for Inhibitors of AMA1-RON; Towards Development of Antimalarial Drug Lead: Primary Screen; further: nearly all actives have a fitted effect of over 45% in size;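 on activity change, negative = inhibition: 0% = vehicle wells and -100% = peptide control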
# Settings: AlphaScreen AMA1-biotinylated RON2 peptide binding; activity change, negative = inhibition: at 58.2 µM (top of the series) unless noted
# Method in brief: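 AMA1 (3D7) with his tag at 25 nM final met compounds first, then biotinylated RON2 peptide at 25 nM; detection used donor plus acceptor beads, 10 µg/mL apiece, read by AlphaScreen after 30 min at room temperature.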
# Potency means the concentration at half of the fitted maximal effect; tags describe the fitted curve by direction and shape.
SMILES,Potency,"activity change, negative = inhibition"
CCc1c(-c2ccccc2)ncn1Cc1cccc(-c2ccccc2)c1,"inconclusive [inhibitor, single point]",
COC(=O)CSC1=C(C#N)C(c2ccc3c(c2)OCO3)C2=C(CCCC2=O)N1 (configuration not stated),inactive,
COc1cc2ncnc(Nc3ccc4c(c3)OCO4)c2cc1OC,inactive,
C[n+]1c(-c2ccccc2)cc2c(=Cc3ccc([N+](=O)[O-])cc3)c3ccccc3n21,"inconclusive [inhibitor, partial curve]",
O=C1c2ccccc2C(Nc2ccccc2)N1Cc1ccc2c(c1)OCO2 (configuration not stated),"inconclusive [inhibitor, single point]",
Cc1ccc(Cc2nnc3n(-c4ccccc4)nc(C(=O)c4ccccc4)n3c2=O)cc1,inactive,
O=C(CN1CCN(c2nc(-c3ccccc3)cs2)CC1)Nc1ccc2c(c1)OCO2,"inconclusive [inhibitor, partial curve]",
COc1ccncc1-c1ccc(C2=CC(=O)CC(C)(C)C2=O)cc1,"inconclusive [inhibitor, partial curve]",
CCOc1cc2[nH]c(=S)n(CCCOC)c(=O)c2cc1OCC,inactive,
COc1ccc(-c2c(-c3cc(OC)cc(OC)c3)n(C)c3ccc(-c4ccn[nH]4)cc23)cc1,"inconclusive [inhibitor, partial curve]",
Nc1c(O)ccc2c1C(=O)c1ccccc1C2=O,"inconclusive [inhibitor, single point]",
CC(=O)Nc1ccc(-c2ccc3nnc(C)n3n2)cc1,"inconclusive [inhibitor, single point]",
CCSc1nc2c(c(=O)n1CC)SC(C)C2 (configuration not stated),inactive,
CCOc1ccc(N(C(=O)c2snc(C(N)=O)c2N)C(C(=O)NCC2CCCO2)c2c[nH]c3ccccc23)cc1 (configuration not stated),"inconclusive [inhibitor, partial curve]",
COc1ccc(CN2CCN(C(=O)c3cccnc3)CC2)cc1Br,"inconclusive [inhibitor, full curve, poor fit]",
COc1cc(NC(=O)c2ccc(C)cc2)c(OC)cc1NC(=O)CN1CCCCC1,"inconclusive [inhibitor, partial curve]",
CCN1CCN(c2ccc(N=Cc3ccc(O)cc3O)cc2)CC1,"inconclusive [inhibitor, partial curve]",
O=c1c2[nH]c3ccc(Br)cc3c2ncn1Cc1ccncc1,inactive,
COCCNC(=O)Nc1ccc2nc(C)sc2c1,inactive,
COc1ccccc1/C=C/C(=O)Nc1nc(N)n(-c2ccccc2)n1,inactive,
CCOC(=O)c1cc2c(ccn2C)n1CC(=O)N1CCC(Cc2ccccc2)CC1,"inconclusive [inhibitor, single point]",
COCCNC(=O)Cn1cc(/C=C(\C#N)C(=O)NC2CCCC2)c2ccccc21,"inconclusive [inhibitor, single point]",
Cn1c(SCC(=O)c2ccccc2)nnc1-c1cccc(N)c1,inactive,
Cc1cc(C(=O)N/N=C/c2cc(Cl)cc([N+](=O)[O-])c2O)c2ccccc2n1,"inconclusive [inhibitor, full curve]",

SMILES,Potency,"activity change, negative = inhibition"
Cc1ccc(NC(=O)n2ncc3c(C)cccc32)c(C)c1,,inconclusive: -0.794% [inhibitor]
CC(O)(c1ccc(F)c(F)c1)c1nc(-c2ccc3ccccc3c2)cs1 (configuration not stated),inactive,
NC(=O)c1ccc(N=Cc2ccc([N+](=O)[O-])s2)cc1,inactive,
COC(=O)Cc1c[nH]c2cccc(OCC(O)CN(Cc3ccc([N+](=O)[O-])cc3)C(C)(C)C)c12 (configuration not stated),"inconclusive [inhibitor, full curve, poor fit]",
c1ccc2c(CNc3ccc(CNc4ncn[nH]4)cc3)cccc2c1,"inconclusive [inhibitor, partial curve]",
Nc1nn(S(=O)(=O)c2cccc3nsnc23)cc1-c1ccc(Br)cc1,"inconclusive [inhibitor, single point]",
COc1ccc(Cc2nc(-c3ccc(Br)o3)no2)cc1OC,inactive,
Nc1ccc(N=Nc2ccccc2Cl)c(N)n1,"inconclusive [inhibitor, single point]",
CC(N=Cc1cccc(O)c1O)c1ccccc1 (configuration not stated),"inconclusive [inhibitor, single point]",
CC(C)c1ccc(N(C(=O)c2csnn2)C(C(=O)NC2CCCC2)c2ccncc2)cc1 (configuration not stated),inactive,
O=c1oc2ccccc2c(N2CCCCC2)c1CN1CCCCC1,inactive,
COC(=O)c1sc2nc(-c3ccccc3)nc(N3CCN(C)CC3)c2c1C,"inconclusive [inhibitor, partial curve]",
Cc1cc(C)cc(OCCN2CCOCC2)c1,"inconclusive [inhibitor, single point]",
Cn1c(=S)oc2ccccc21,"inconclusive [inhibitor, full curve]",
COc1ccc(NC(=S)NCc2ccccc2Cl)c(OC)c1,"inconclusive [inhibitor, partial curve]",
Cc1cc(NCc2ccncc2)ccc1Br,active: 25.1 µM,
COc1cccc(-c2sc3ccc(OC)cc3c2-c2ccc(OCCN3CCOCC3)cc2)c1,"inconclusive [inhibitor, partial curve]",
CCOC(=O)N1CCN(C(=O)Cc2ccc(C)cc2)CC1,inactive,
Cc1ccc(-c2csc3nnc(SCC(=O)Nc4cccc(C)n4)n23)cc1,inactive,
S=C(c1ccccc1)N1CCN(c2ccccc2)CC1,"inconclusive [inhibitor, single point]",
CN(CC(=O)Nc1ccccc1Cl)C(=O)Cn1nnc(-c2ccc(F)cc2)n1,"inconclusive [inhibitor, single point]",
O=C(NNC(=S)NC(=O)c1ccccc1)c1ccc(O)cc1,inactive,
O=c1[nH]c2ccccc2n1C1CCN(Cc2ccc(-c3nc4ccccc4nc3-c3ccccc3)cc2)CC1,"inconclusive [inhibitor, partial curve]",
